Source: PubChem BioAssay AID485344 (National Center for Advancing Translational Sciences (NCATS), 2010)
Screen size: about 340,000 compounds; about 6,900 (2%) were called active. Cut-off read from the data, not from the text of the source: active = inhibition above about 30%; inactive = below that, where a call was filed. The entries are a selection whose mix differs from that of the whole data set. Entries without a call were filed so in the source.
Note: 0% is about no effect.

The compounds below were run against D(2) dopamine receptor (Homo sapiens) (UniProt P14416) (assay: HTS Assay for Allosteric Antagonists of the Human D2 Dopamine Receptor: Primary Screen for Antagonists). Conditions: HEK293 TREx D2 cells, calcium flux, dopamine EC80; at 10 µM; stronger effect = higher value.
UniProt P14416, sequence (P14416 whole entry, looked up): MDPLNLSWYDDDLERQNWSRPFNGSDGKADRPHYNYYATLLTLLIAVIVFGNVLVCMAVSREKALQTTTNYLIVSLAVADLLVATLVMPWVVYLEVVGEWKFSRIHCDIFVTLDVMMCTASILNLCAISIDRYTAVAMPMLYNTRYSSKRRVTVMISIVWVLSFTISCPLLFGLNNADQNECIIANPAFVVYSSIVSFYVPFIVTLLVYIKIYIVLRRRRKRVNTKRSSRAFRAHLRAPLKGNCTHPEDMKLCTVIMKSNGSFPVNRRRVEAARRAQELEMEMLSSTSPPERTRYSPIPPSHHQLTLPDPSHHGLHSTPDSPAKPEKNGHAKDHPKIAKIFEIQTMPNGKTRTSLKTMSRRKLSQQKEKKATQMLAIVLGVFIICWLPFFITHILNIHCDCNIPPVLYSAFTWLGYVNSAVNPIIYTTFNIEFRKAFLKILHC
In short: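 HEK293 T-REx D2 cells, tet-induced, calcium dye no-wash. Cpd pintool add, 180 s kinetic, then EC80 DA, 180 s kinetic. Ca flux read.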
In the case of `Fc1ccccc1N1CCN(CC2CCCCC2)CC1`, the inhibition is reported as active: 88.8%. `CCOC(=O)c1cc(NC(=O)c2ccc(C)cc2)c(=O)n2c1oc1ccccc12` was tested, and the inhibition was -20.1%. Work on `COCCCNC(=O)Cn1c(=O)n(-c2ccccc2)c(=O)c2c1c1cc(OC)ccc1n2C` yielded an inhibition of 15.5%. Work on `COc1ccc(CN2C(=O)N(c3cccc(C)c3)C(=O)C2CC(=O)Nc2ccc(F)cc2)cc1OC` (stereo unspecified) yielded an inhibition of -17.8%. Compound `COc1cccc(C(=O)Nc2nc3c(s2)CCCC3)c1` has an inhibition of 21.2%. In the case of `CN(Cc1ccccc1)C(=O)C(=O)Nc1ccc2nc3n(c(=O)c2c1)CCCCC3`, the inhibition is reported as 2.45%. For `CNc1ccc(-c2nc(-c3ccccn3)no2)cc1[N+](=O)[O-]`, the inhibition was -2.08%. Work on `Cc1ccc(CNC(=O)c2cc3cc(C)ccc3n2C)cc1` yielded an inhibition of -5.7%. For `COc1ccc(-n2c(=O)c3ccc(C(=O)NCc4ccc(C)cc4)cc3n(CC(=O)Nc3cccc(F)c3)c2=O)cc1`, the inhibition was 2.21%. `Cc1nonc1NC(=O)CSc1nc(C2CCCCC2)nc2ccccc12` was tested, and the inhibition was active: 53.5%. `CCCNC(=O)C1CCC(Cn2c(=O)c3sccc3n(CC(=O)N(CC)CC)c2=O)CC1` (stereo unspecified) showed an inhibition of 0.693%. With `COc1ccc(NC(=O)Cn2nnnc2-c2ccccc2F)c(C)c1` the inhibition was -5.2%. Work on `COC(=O)c1ccc(NC(=O)CC2C(=O)N(c3cccc(F)c3)C(=O)N2CC(C)C)cc1` (stereo unspecified) yielded an inhibition of -2.08%. `Cc1ccc(-n2nc(C(=O)N3CCCCC3)c(=O)n(C)c2=O)cc1` gave an inhibition of 6.39%. `CCCN(CCC)CCNC(=O)CS(=O)Cc1nc(-c2ccc(OC)c(OC)c2)oc1C` (stereo unspecified) gave an inhibition of -9.35%. For `Cc1ccc[n+](CC(=O)N2CCCc3ccccc32)c1`, the inhibition was active: 31.2%. For `CC1CCN(CCCCOc2cccc(C(C)C)c2)CC1`, the inhibition was active: 58.2%. Work on `CCc1ccc(S(=O)(=O)NCc2cccn2Cc2cccc(C)c2)cc1` yielded an inhibition of -1.23%. In the case of `CCc1ccccc1NC(=O)c1cc(-c2ccc(OC)cc2)on1`, the inhibition is reported as -1.85%. `CC1=C(C(=O)Nc2cc(Cl)ccc2C)C(c2ccccc2F)n2ncnc2N1` (stereo unspecified) gave an inhibition of 6.08%. For `COc1cc(C(=O)Nc2sc3c(c2C(N)=O)CCC(C)C3)cc(OC)c1OC` (stereo unspecified), the inhibition was 3.66%. With `CN(C)S(=O)(=O)c1ccc(Cl)c(NC(=O)C2CCN(S(=O)(=O)c3cccs3)CC2)c1` the inhibition was active: 31.1%. `CCn1c(=O)c(=O)n(CC)c2cc(N3CCCCC3)c(NC(=O)c3ccc(OC)c(OC)c3)cc21` showed an inhibition of -25.3%. In the case of `COc1ccc(-n2c(SCC(=O)Nc3ccccc3)nc3c(c2=O)SCC3)cc1`, the inhibition is reported as active: 31.4%. With `COc1ccc(CCNC(=O)CSc2cc(=O)n(C)c3ccccc23)cc1OC` the inhibition was 7.28%. With `COc1cccc(C(=O)N(Cc2ccc(N(C)C)cc2)Cc2ccco2)c1` the inhibition was 4.34%. In the case of `O=C(CSc1nc2c([nH]c3ccccc32)c(=O)n1-c1ccc(Cl)cc1)NCc1ccccc1`, the inhibition is reported as 21.1%. `Clc1ccc(C[n+]2cc(-c3ccc(Cl)cc3)n3c2CCC3)cc1` was tested, and the inhibition was active: 44.4%. `O=C(CCCCCn1c(=O)[nH]c2ccccc2c1=O)NCCc1ccccc1` showed an inhibition of 2.24%. For `COc1ccc(Cl)cc1NC(=O)CN(c1cccc(C)c1C)S(C)(=O)=O`, the inhibition was 8.67%. `Cc1cccc(S(=O)(=O)c2cn(Cc3ccc(F)cc3)c3cc(N4CCCCC4)c(F)cc3c2=O)c1` was tested, and the inhibition was -3.83%. For `COc1ccccc1N1CCN(CCCNC(=O)Nc2ccccc2)CC1`, the inhibition was active: 101%. For `Cc1ccc(NC(=O)COC(=O)c2ccc(CN3CCCC3=O)cc2)c(Cl)c1`, the inhibition was active: 34.8%. `COc1ccc(CCNC(=O)Cn2c(=O)c3sccc3n(CC(=O)Nc3cccc(C(F)(F)F)c3)c2=O)cc1OC` gave an inhibition of -27.5%. In the case of `O=C(NCc1cccc(Cl)c1)c1cnc(N2CCCCC2)c2ccccc12`, the inhibition is reported as -10.3%. Compound `Cc1cccc(N2CCN(c3ncnc4onc(C)c34)CC2)c1C` has an inhibition of -5.6%. Compound `CCc1ccc(C2N=C(N)Nc3nc4ccccc4n32)cc1` (stereo unspecified) has an inhibition of 21.7%. With `Cc1ccc(-n2ncc(C(=O)NCCc3ccsc3)c2C2CCN(C(=O)OC(C)(C)C)CC2)c(C)c1` the inhibition was -12%. `COc1ccc(Cl)cc1NC(=O)C(OC)c1ccccc1` (stereo unspecified) was tested, and the inhibition was active: 30%. Compound `CCCCNC(=O)CN1C(=O)CSc2ccc(S(=O)(=O)N3CCC(C)CC3)cc21` has an inhibition of -4.45%. In the case of `CC(=O)c1cccc(N(C(=O)Cn2nnc3ccccc32)C(C(=O)NCc2ccccc2)c2ccc(F)cc2)c1` (stereo unspecified), the inhibition is reported as 11.6%. For `Cc1ccc(NC(=O)CN(C)S(=O)(=O)c2ccc3c(c2)CCC(=O)N3)c(C)c1`, the inhibition was 4.88%. In the case of `Cc1cc(NC(=O)CSc2nc(-c3ccco3)cc(C(F)(F)F)n2)no1`, the inhibition is reported as active: 36%. Work on `Cc1ccc(CN2CCCn3nc(C(=O)NCc4ccccc4Cl)cc3C2=O)cc1` yielded an inhibition of 5.41%. In the case of `CCCN1CCN(c2ncc3c(n2)CCN(Cc2ccc(OC)c(OC)c2OC)C3)CC1`, the inhibition is reported as -6.83%. Compound `Cc1ccc(NC(=O)Cn2nc(-c3ccc(F)cc3)c3cnc4ccc(C)cc4c32)cc1` has an inhibition of 4.49%. In the case of `COc1ccccc1-c1noc(-c2ccc(N(C)Cc3ccccc3)c([N+](=O)[O-])c2)n1`, the inhibition is reported as 22%. In the case of `CCCCN(CC)C(=O)CCn1c(=O)c2cccn2c2cccnc21`, the inhibition is reported as 4.16%. For `COc1ccccc1C(=O)c1c(N)c(-c2nc(-c3ccccc3)cs2)c2ccccn12`, the inhibition was 1.24%. `CCOc1ccc(CNCc2c(C(=O)O)c(C)n(Cc3ccc(F)cc3Cl)c2C)cc1` was tested, and the inhibition was 16.8%. Work on `CCN1CCN(C(=O)c2ccc3c(c2)N(Cc2ccccc2)C(=O)c2ccccc2S3=O)CC1` (stereo unspecified) yielded an inhibition of 17.3%. Compound `Cc1nn(CCCC(=O)NCc2cccc(F)c2)c(=O)c2nn(-c3ccccc3)c(C)c12` has an inhibition of 0.216%. `COc1ccc(OC)c(-c2nc(C(N)=O)c3c(n2)n(-c2ccc4c(c2)OCO4)c(=O)n3C)c1` showed an inhibition of 5.25%. In the case of `S=C(NCCc1ccccc1)NC1CC2CCC(C1)N2Cc1ccccc1` (stereo unspecified), the inhibition is reported as active: 62.7%. Compound `CCOC(=O)c1c(S(=O)(=O)NCC(=O)Nc2ccc(Cl)c(C(F)(F)F)c2)c(C)n(C)c1C` has an inhibition of 7.55%. Compound `CCCCc1nn2c(=O)cc(COC(=O)c3cccc(NC(=O)c4cccc(C)c4)c3)nc2s1` has an inhibition of 6.97%. Work on `CSc1ncc(Cl)c(C(=O)Nc2nc3ccc(F)cc3s2)n1` yielded an inhibition of -1.03%. In the case of `Cc1nnc(SC(C)C(=O)Nc2ccc(S(=O)(=O)NC3CCCCC3)cc2)s1` (stereo unspecified), the inhibition is reported as active: 61.3%. `COc1cccc(NC(=O)CN(Cc2ccccc2)S(=O)(=O)c2ccc3nc(C)sc3c2)c1` showed an inhibition of -4.53%. With `Cc1nc2ccc(C(=O)N3CCCC(CO)(Cc4ccc(F)cc4F)C3)cc2nc1C` (stereo unspecified) the inhibition was active: 30.1%. With `CC(C)c1nnc(NC(=O)c2nc(SCc3ccc(F)cc3)ncc2Cl)s1` the inhibition was -1.2%.
